T1: his-tagged human CD73 (AcroBiosystems, Cat. No. CD3-H52H7) (human, UniProt P21589 27-547)
T1 construct: Bought protein; also called hCD73-His; human CD73 antigen; not shown: His tag
T1 sequence (looked up): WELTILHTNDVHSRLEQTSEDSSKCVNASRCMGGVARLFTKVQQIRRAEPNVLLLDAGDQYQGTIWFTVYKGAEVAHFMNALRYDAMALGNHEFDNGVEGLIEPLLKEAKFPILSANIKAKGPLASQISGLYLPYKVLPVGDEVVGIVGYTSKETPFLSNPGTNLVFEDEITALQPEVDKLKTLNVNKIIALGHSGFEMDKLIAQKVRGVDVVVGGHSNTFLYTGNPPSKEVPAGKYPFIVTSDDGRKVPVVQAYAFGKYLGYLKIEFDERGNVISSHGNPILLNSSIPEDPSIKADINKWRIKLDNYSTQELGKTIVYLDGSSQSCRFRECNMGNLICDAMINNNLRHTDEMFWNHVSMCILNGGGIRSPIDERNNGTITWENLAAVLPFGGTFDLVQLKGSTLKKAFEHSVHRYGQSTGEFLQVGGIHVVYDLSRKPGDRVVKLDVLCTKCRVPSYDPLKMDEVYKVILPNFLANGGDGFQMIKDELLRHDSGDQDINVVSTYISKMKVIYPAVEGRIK


Columns and labels:
[1] = target: T1, his-tagged human CD73 (AcroBiosystems, …); assay: BLI (Octet), bsAb on AHC sensor, hCD73-His 2-fold from 30 nM, 7 points
Procedure: The affinity of anti-CD73 mAbs and bsAbs were determined by biolayer interferometry analysis (ForteBIO, USA). In this method, anti-CD73 antibodies were loaded at 5 μg/mL on AHC (Anti-Human IgG Fc Capture, ForteBIO, Cat. No. 18-5060) for signal reach to approximate 0.5 nm. Sensors then were exposed to his-tagged human CD73 (AcroBiosystems, Cat. No. CD3-H52H7)-containing solutions that 2-fold serial diluted from the top concentration 30 nM for total 7 points. Measurements were performed as follows: 1 minute baseline in kinetic buffer, 5 minutes association in hCD73-His-containing solutions, and 5 minutes dissociation into kinetic buffer. The kinetic parameters were calculated and produced by Octet Data Acquisition and Analysis Software.

[2] = target: T2, mouse Fc tagged human CD137 protein (AcroBiosystems, Cat #41B-H5256) (human, UniProt Q07011 24-186); assay: BLI (Octet) against human CD137 antigen; the set-up for CD137 is not described for these bsAbs
T2 construct: extracellular domain; Bought protein; also called CD137 extracellular domain fused with mouse Fc tag recombinant protein; human CD137 antigen

Row | Binder | Kd [1] | Kd [2]
1 | anti-CD73#3-1-28-CD137#54 bsAb (bispecific antibody, human IgG1, lambda, N297A, bsAb of the parental clone #3-1-28; also called Anti-CD73#CR3-1-28-CD137#54 bsAb; #3-1-28-#54) heavy chain with C-terminal CD137#54 scFv: QVQLVQSGAEVKKPGSSVKVSCKASGGTFSSYAISWVRQAPGQGLEWMGRIIPILGIANYAQKFQGRVTITADKSTSTAYMELSSLRSEDTAVYYCARDSPVHYYGSGSYYRDAFDIWGQGTMVTVSSASTKGPSVFPLAPSSKSTSGGTAALGCLVKDYFPEPVTVSWNSGALTSGVHTFPAVLQSSGLYSLSSVVTVPSSSLGTQTYICNVNHKPSNTKVDKKV[sequence of human IgG1 Fc with N297A K322A (EU numbers) not given]GGGGSGGGGSQVQLVQSGAEVKKPGSTVKVSCKASGGTFSSYAISWVRQAPGQGLEWMGRIIPILGIANYAQKFQGRVTITADKSTSTAYMELSSLRSEDTAVYYCASPPYYDSSGYYPLGAFDIWGQGTMVTVSSAGGGGSGGGGSGGGGSGGGGSSYELTQPPSVSVSPGQTASITCSGDKLGEKYASWYQQKAGQSPILVIYQDSKRPSGIPERFSGSNSGNTATLTISGLQAGDEADYYCQAWDGSSTYVFGTGTKVTVLG light chain: QSVLTQPPSASGTPGQRVIISCSGSSSNIGSNSVYWYQQLPGTAPKLLIYSNNQRPSGVPGRFSGSKSGTSASLAISGLRSEDEADYYCAAWDDSLRGPVFGGGTKLTVLGQPKAAPSVTLFPPSSEELQANKATLVCLISDFYPGAVTVAWKADSSPVKAGVETTTPSKQSNNKYAASSYLSLTPEQWKSHRSYSCQVTHEGSTVEKTVAPTECS | 1.21 nM | 0.729 nM
2 | anti-CD73 #3-1-28-v2-CD137 #54 bsAb (bispecific antibody, human IgG1, lambda, N297A, Engineered IgG1 with the CD137 #54 scFv linked to the Fc C-terminus; also called Anti-CD73 #CR3-1-28-v2-CD137#54) heavy: QVQLVQSGAEVKKPGSSVKVSCKASGGTFSSYAISWVRQAPGQGLEWMGRIIPILGIANYAQKFQGRVTITADKSTSTAYMELSSLRSEDTAVYYCARDSPVHYYGDGHYYRDAFDIWGQGTMVTVSSASTKGPSVFPLAPSSKSTSGGTAALGCLVKDYFPEPVTVSWNSGALTSGVHTFPAVLQSSGLYSLSSVVTVPSSSLGTQTYICNVNHKPSNTKVDKKV[sequence of human IgG1 Fc with N297A K322A (EU numbers) not given]GGGGSGGGGSQVQLVQSGAEVKKPGSTVKVSCKASGGTFSSYAISWVRQAPGQGLEWMGRIIPILGIANYAQKFQGRVTITADKSTSTAYMELSSLRSEDTAVYYCASPPYYDSSGYYPLGAFDIWGQGTMVTVSSAGGGGSGGGGSGGGGSGGGGSSYELTQPPSVSVSPGQTASITCSGDKLGEKYASWYQQKAGQSPILVIYQDSKRPSGIPERFSGSNSGNTATLTISGLQAGDEADYYCQAWDGSSTYVFGTGTKVTVLG light: QSVLTQPPSASGTPGQRVIISCSGSSSNIGSNSVYWYQQLPGTAPKLLIYSNNQRPSGVPGRFSGSKSGTSASLAISGLRSEDEADYYCAAWDDSLRGPVFGGGTKLTVLGQPKAAPSVTLFPPSSEELQANKATLVCLISDFYPGAVTVAWKADSSPVKAGVETTTPSKQSNNKYAASSYLSLTPEQWKSHRSYSCQVTHEGSTVEKTVAPTECS | 0.637 nM | 0.703 nM

The remaining binders from weak to strong by Kd [1], led by results:

Row | Kd [1] | Kd [2] | Binder
3 | 0.621 nM | 0.756 nM | anti-CD73 #3-1-28-v3-CD137 #54 bsAb (bispecific antibody, human IgG1, lambda, N297A, Engineered IgG1 with the CD137 #54 scFv linked to the Fc C-terminus; also called Anti-CD73 #CR3-1-28-v3-CD137#54) heavy: QVQLVQSGAEVKKPGSSVKVSCKASGGTFSSYAISWVRQAPGQGLEWMGRIIPILGIANYAQKFQGRVTITADKSTSTAYMELSSLRSEDTAVYYCARDSPVHYYGDGTYYRDSFDIWGQGTMVTVSSASTKGPSVFPLAPSSKSTSGGTAALGCLVKDYFPEPVTVSWNSGALTSGVHTFPAVLQSSGLYSLSSVVTVPSSSLGTQTYICNVNHKPSNTKVDKKV[sequence of human IgG1 Fc with N297A K322A (EU numbers) not given]GGGGSGGGGSQVQLVQSGAEVKKPGSTVKVSCKASGGTFSSYAISWVRQAPGQGLEWMGRIIPILGIANYAQKFQGRVTITADKSTSTAYMELSSLRSEDTAVYYCASPPYYDSSGYYPLGAFDIWGQGTMVTVSSAGGGGSGGGGSGGGGSGGGGSSYELTQPPSVSVSPGQTASITCSGDKLGEKYASWYQQKAGQSPILVIYQDSKRPSGIPERFSGSNSGNTATLTISGLQAGDEADYYCQAWDGSSTYVFGTGTKVTVLG light: QSVLTQPPSASGTPGQRVIISCSGSSSNIGSNSVYWYQQLPGTAPKLLIYSNNQRPSGVPGRFSGSKSGTSASLAISGLRSEDEADYYCAAWDDSLRGPVFGGGTKLTVLGQPKAAPSVTLFPPSSEELQANKATLVCLISDFYPGAVTVAWKADSSPVKAGVETTTPSKQSNNKYAASSYLSLTPEQWKSHRSYSCQVTHEGSTVEKTVAPTECS
4 | 0.492 nM | 0.652 nM | anti-CD73 #3-1-28-v1-CD137 #54 bsAb (bispecific antibody, human IgG1, lambda, N297A, CD137 #54 scFv linked to the Fc C-terminus; also called #3-1-28-v1 converted to anti-CD73-CD137 bispecific antibody) heavy: QVQLVQSGAEVKKPGSSVKVSCKASGGTFSSYAISWVRQAPGQGLEWMGRIIPILGIANYAQKFQGRVTITADKSTSTAYMELSSLRSEDTAVYYCARDSPVHYYGSGSYYRDAFDIWGQGTMVTVSSASTKGPSVFPLAPSSKSTSGGTAALGCLVKDYFPEPVTVSWNSGALTSGVHTFPAVLQSSGLYSLSSVVTVPSSSLGTQTYICNVNHKPSNTKVDKKV[sequence of human IgG1 Fc with N297A K322A (EU numbers) not given]GGGGSGGGGSQVQLVQSGAEVKKPGSTVKVSCKASGGTFSSYAISWVRQAPGQGLEWMGRIIPILGIANYAQKFQGRVTITADKSTSTAYMELSSLRSEDTAVYYCASPPYYDSSGYYPLGAFDIWGQGTMVTVSSAGGGGSGGGGSGGGGSGGGGSSYELTQPPSVSVSPGQTASITCSGDKLGEKYASWYQQKAGQSPILVIYQDSKRPSGIPERFSGSNSGNTATLTISGLQAGDEADYYCQAWDGSSTYVFGTGTKVTVLG light: QSVLTQPPSASGTPGQRVIISCSGSSSNIGSNSVYWYQQLPGTAPKLLIYANNERPSGVPGRFSGSKSGTSASLAISGLRSEDEADYYCAAWDDSLRGPVFGGGTKLTVLGQPKAAPSVTLFPPSSEELQANKATLVCLISDFYPGAVTVAWKADSSPVKAGVETTTPSKQSNNKYAASSYLSLTPEQWKSHRSYSCQVTHEGSTVEKTVAPTECS

Source: patent publication US20250026841A1 (AP BIOSCIENCES, published 2025)
